# In PubChem BioAssay AID1745845 (National Center for Advancing Translational Sciences (NCATS), 2022):
# Among all 360,000 compounds or so, about 2,600 (0.72%) were called active. The inconclusive results got no clear call from the source; some entries with a clear call stand among them for comparison. Calls follow the shape of the dose curve; as a rule, active = well fitted inhibition curve with a large enough effect; inconclusive = small, poorly fitted or top-dose-only effect; inactive = no such curve, though single readings can be large or run the other way. Where the call is inconclusive, the potency comes from a doubtful curve fit.
# Assay: Primary qHTS for Inhibitors of ATXN expression; also: nearly all actives have a fitted effect of over 55% in size
# Settings: HEK-293 ATXN2-luciferase reporter, luminescence, 24 h; activity change, negative = inhibition: at 57 µM (top of the series)
# Method in brief: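 qHTS (up to 57 uM final) was run with 24 h compound exposure of reporter cells at 37 °C. Each well was multiplexed: SteadyGlo luminescence measured ATXN2-luciferase expression after a fluorogenic Gly-Phe-AFC viability readout (25 uM final).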
# % is scaled to controls: 0 for no effect and ±100 for the full control effect; potency is read from the fitted curve at half-maximal effect; tags tell the direction and shape of the fitted curve.
SMILES,"activity change, negative = inhibition",Potency
COc1ccc(-n2cc(C(=O)c3ccccc3O)cn2)cc1,inconclusive: -42% [inhibitor],–
CCOC(=O)c1ccc(C#Cc2ccc3c(c2)C(C)(C)CCS3)nc1,–,"inconclusive: 35.5 µM [inhibitor, single point]"
CCOC(=O)c1c(NC(=O)/C=C/C(=O)O)sc(C)c1-c1ccc(Cl)cc1,–,"inconclusive: 29.9 µM [inhibitor, partial curve, poor fit]"
COc1ccc(CCNC2=C(Cl)C(=O)N(Cc3ccccc3)C2=O)cc1OC,–,"inconclusive: 39.8 µM [inhibitor, single point]"
Cc1ccc(NC(=S)Nc2ccc(C(C)C)cc2)cc1S(=O)(=O)N1CCCCCC1,–,"inconclusive: 14.1 µM [inhibitor, partial curve, poor fit]"
CCC(C)(C)c1ccc(CC(C)CN2C[C@@H](C)O[C@@H](C)C2)cc1 (stereo partly drawn),–,"inconclusive: 43.2 µM [inhibitor, partial curve, poor fit]"
Cc1nc2ccccc2c(=O)n1/N=C/c1cn[nH]c1-c1ccccc1,–,"inconclusive: 3.98 µM [inhibitor, partial curve, poor fit]"
Cc1ccc(C)c(N2CCN(C(=O)c3ccc4nc(N5CCOCC5)sc4c3)CC2)c1,–,"inconclusive: 14.1 µM [inhibitor, partial curve, poor fit]"
C=CCC[C@H](Cc1ccc(F)cc1)C(=O)OC[C@H](Cc1c[nH]c2ccccc12)NC(=O)[C@@H](CC=C)CC(=O)N[C@@H](CO)Cc1ccccc1,–,active: 15.8 µM
Cc1ccc(C(=O)c2c(NC(=O)CSc3nnc(N)s3)sc3c2CCCC3)cc1,–,inactive
O=C(Nc1ccc2oc(-c3ccccc3F)nc2c1)c1ccc2c(c1)OCCO2,–,"inconclusive: 28.2 µM [inhibitor, single point]"
CCOc1ccccc1N1CCN(C(=O)NCc2ccc(Cl)cc2)CC1,–,inactive
CC(=O)N1c2ccc(S(=O)(=O)N3CCC(C(=O)Nc4ccc(C)cn4)CC3)cc2CC1C (stereo not drawn),–,"inconclusive: 39.8 µM [inhibitor, partial curve, poor fit]"
Clc1ccc(OC2CCN(Cc3nc(CC4CC4)no3)CC2)cc1,–,"inconclusive: 14.1 µM [inhibitor, partial curve, poor fit]"
Cc1ccc(NC(=O)c2sc(-n3nc(C)c(Cc4ccc5c(c4)OCO5)c3C)nc2C)cc1C,–,inactive
Cc1cccc(NC(=O)c2sc3nc(-c4ccccc4)cn3c2C)n1,–,"inconclusive: 39.8 µM [inhibitor, single point]"
Cc1ccc(Cc2cnc(NC(=O)/C(C#N)=C/c3ccc(-c4ccccc4[N+](=O)[O-])o3)s2)cc1,–,"inconclusive: 39.8 µM [inhibitor, single point]"
Cc1ccc(C(O)(C(=O)NNc2ccc3ccccc3n2)c2ccc(C)cc2)cc1,–,"inconclusive: 39.8 µM [inhibitor, partial curve, poor fit]"
N#Cc1ccc(Nc2nc(-c3ccc(O)cc3O)cs2)cc1C(F)(F)F,–,active: 25.1 µM

SMILES,"activity change, negative = inhibition",Potency
CCN(CC)CCOC(=O)c1ccc(NC(=O)CCCN2C(=O)S/C(=C/c3ccc(OC)cc3)C2=S)cc1,–,active: 7.08 µM
Cc1cc(C(=O)COC(=O)c2nccnc2N)c(C)n1C,–,"inconclusive: 16.8 µM [inhibitor, partial curve, poor fit]"
O=C(N/N=C/c1ccc([N+](=O)[O-])cc1)c1cc(C2CC2)nc2ccccc12,–,"inconclusive: 37.7 µM [inhibitor, single point]"
COc1ccc(C(=O)NNC(=S)NC(=O)C(C)(C)C)cc1,–,"inconclusive: 22.4 µM [inhibitor, partial curve, poor fit]"
CCCCc1nc(N2CCN(C(=O)c3ccco3)CC2)c(C#N)c2c1CCCC2,–,"inconclusive: 39.8 µM [inhibitor, single point]"
CCN(CC)S(=O)(=O)c1cccc(C(=O)N/N=C/c2ccc(O)c(O)c2O)c1,–,inactive
COc1cccc(CN2CCc3nc(N4CCN(c5ncccn5)CC4)ncc3C2)c1,–,"inconclusive: 28.2 µM [inhibitor, single point]"
CN(C)CCNC(=O)c1cccc(-c2cnc3c(NC=O)cc(-c4ccccc4F)cn23)c1,–,"inconclusive: 39.8 µM [inhibitor, single point]"
COc1ccccc1C1CC(c2ccc(Br)cc2)=NN1C(=O)c1cccnc1 (stereo not drawn),–,"inconclusive: 39.8 µM [inhibitor, single point]"
Cc1ccc2cc(CN(Cc3ccco3)C(=O)NC3CCCCC3)c(=O)[nH]c2c1C,–,"inconclusive: 25.1 µM [inhibitor, partial curve, poor fit]"
COc1cc(/C=N/NC(N)=O)c(Br)cc1OCC(=O)Nc1ccccc1C,–,"inconclusive: 39.8 µM [inhibitor, single point]"
CC(C)(C)[C@H]1COC(=O)[C@@H](Cc2ccc(F)cc2)C/C=C\C[C@@H](CC(=O)N[C@H](CO)Cc2ccccc2)C(=O)N1,–,"inconclusive: 28.2 µM [inhibitor, partial curve, poor fit]"
CC(C)(C)CC(C)(C)NCC(O)COCCOc1ccc(Br)cc1 (stereo not drawn),–,active: 22.4 µM
Cc1cccc(C)c1-n1ncc(C(=O)N2CCN(c3ccccn3)CC2)c1C1CCN(C(=O)OC(C)(C)C)CC1,–,"inconclusive: 22.4 µM [inhibitor, single point]"
Cc1ccc(CN(C)c2nc(-c3cccnc3)nc3ccccc23)o1,–,"inconclusive: 39.8 µM [inhibitor, single point]"
CC(C)(O)c1cc2nc(-c3cnc(N)nc3)nc(N3CCOCC3)c2s1,–,"inconclusive: 7.69 µM [inhibitor, partial curve]"
Cc1ccc(CNc2nc(NC(C)C)nc3ccsc23)c(C)c1,–,"inconclusive: 39.8 µM [inhibitor, single point]"
O=C1N[C@@H](c2ccccc2)COC(=O)[C@H](Cc2ccc(F)cc2)C/C=C\C[C@H]1CC(=O)N(CCO)Cc1ccccc1,–,inactive
COc1ccccc1NS(=O)(=O)c1ccc(C)c(C(=O)N2CCN(c3ccc(O)cc3)CC2)c1,–,"inconclusive: 28.2 µM [inhibitor, single point]"
